{"source": "the BET-seq Pho4 binding data (Le et al. 2018)", "note": "Some of the results follow. These are noisy estimates, calculated here from bound and input reads.", "data": [{"target": "T1, Pho4 (S. cerevisiae) (UniProt P07270)", "T1 sequence": "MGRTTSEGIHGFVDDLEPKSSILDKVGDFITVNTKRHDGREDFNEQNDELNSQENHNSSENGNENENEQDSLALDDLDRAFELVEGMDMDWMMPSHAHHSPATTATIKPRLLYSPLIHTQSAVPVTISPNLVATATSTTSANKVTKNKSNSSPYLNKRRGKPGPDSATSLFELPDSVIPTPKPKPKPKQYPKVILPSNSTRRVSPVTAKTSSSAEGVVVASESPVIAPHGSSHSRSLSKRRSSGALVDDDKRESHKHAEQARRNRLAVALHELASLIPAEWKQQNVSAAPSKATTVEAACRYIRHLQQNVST", "assay": "relative binding free energy (BET-seq); higher = weaker binding", "settings": "reference: library average", "units": {"relative binding free energy": "kcal/mol"}, "values": [{"sequence": "TGATTCACGTGTGCGT", "relative binding free energy": 0.25}, {"sequence": "AAGAGCACGTGAGGGA", "relative binding free energy": 0.1}, {"sequence": "AGGATCACGTGGGGAA", "relative binding free energy": 0.03}, {"sequence": "TTAGGCACGTGTATTA", "relative binding free energy": 0.05}, {"sequence": "GTTGGCACGTGGAGTA", "relative binding free energy": -0.16}, {"sequence": "TGCGGCACGTGGACTT", "relative binding free energy": -0.03}, {"sequence": "GTGTTCACGTGATAAT", "relative binding free energy": 0.35}, {"sequence": "CGTTTCACGTGGTGGC", "relative binding free energy": 0.2}, {"sequence": "GGATTCACGTGGTGAT", "relative binding free energy": 0.34}, {"sequence": "TGGGGCACGTGTTGCT", "relative binding free energy": -0.06}, {"sequence": "TGATACACGTGGCTTT", "relative binding free energy": -0.03}, {"sequence": "TGTATCACGTGGGGCG", "relative binding free energy": -0.09}, {"sequence": "TTAATCACGTGTTGAA", "relative binding free energy": 0.13}, {"sequence": "TTAGTCACGTGGATCT", "relative binding free energy": 0.04}, {"sequence": "GAAGGCACGTGGAGAG", "relative binding free energy": -0.06}, {"sequence": "GAGGTCACGTGGATCA", "relative binding free energy": 0.35}, {"sequence": "ATATGCACGTGGAAGG", "relative binding free energy": -0.08}, {"sequence": "GAGGTCACGTGGGCGC", "relative binding free energy": 0.02}, {"sequence": "CTACGCACGTGTGGAG", "relative binding free energy": 0.06}, {"sequence": "ACTTACACGTGGGGCG", "relative binding free energy": 0.17}, {"sequence": "AATAGCACGTGAGGCG", "relative binding free energy": 0.12}, {"sequence": "TGTGCCACGTGTGGAG", "relative binding free energy": -0.03}, {"sequence": "TATCTCACGTGGTCGG", "relative binding free energy": 0.09}, {"sequence": "GGGTACACGTGGCTGA", "relative binding free energy": 0.05}, {"sequence": "AGTTTCACGTGGTCCG", "relative binding free energy": 0.3}, {"sequence": "GCGATCACGTGGGGGC", "relative binding free energy": 0.2}, {"sequence": "AGTGGCACGTGATGTT", "relative binding free energy": 0.07}, {"sequence": "TTAGACACGTGCTGGT", "relative binding free energy": 0.01}, {"sequence": "TGCTGCACGTGGAGTT", "relative binding free energy": 0.04}, {"sequence": "TTATCCACGTGTGGCG", "relative binding free energy": 0.14}, {"sequence": "CAAAGCACGTGTAGGG", "relative binding free energy": -0.01}, {"sequence": "TGTAGCACGTGGAGTG", "relative binding free energy": -0.16}, {"sequence": "AAACTCACGTGGTTTG", "relative binding free energy": 0.29}, {"sequence": "GTAGGCACGTGACGTA", "relative binding free energy": 0.16}, {"sequence": "AGGATCACGTGAGCGG", "relative binding free energy": 0.29}, {"sequence": "TTTGTCACGTGCTGAG", "relative binding free energy": 0.08}, {"sequence": "TGGTTCACGTGGTCGG", "relative binding free energy": 0.32}, {"sequence": "CTGGCCACGTGGGGAG", "relative binding free energy": -0.16}, {"sequence": "GCGTTCACGTGATTGA", "relative binding free energy": 0.51}, {"sequence": "TTTCCCACGTGTGGTA", "relative binding free energy": 0.1}, {"sequence": "GTCAGCACGTGGGTCG", "relative binding free energy": -0.18}, {"sequence": "ATAAGCACGTGGCTTG", "relative binding free energy": -0.14}, {"sequence": "GGTTACACGTGGGCAT", "relative binding free energy": 0.03}, {"sequence": "TGACTCACGTGTTATT", "relative binding free energy": 0.09}, {"sequence": "GTAGGCACGTGAACGT", "relative binding free energy": 0.1}, {"sequence": "GTAAGCACGTGGTGAA", "relative binding free energy": -0.22}, {"sequence": "GGTATCACGTGTTCTA", "relative binding free energy": 0.3}, {"sequence": "TTTGGCACGTGTATAC", "relative binding free energy": -0.12}, {"sequence": "GTGAGCACGTGAGTCG", "relative binding free energy": 0.19}, {"sequence": "TGTTACACGTGCATTT", "relative binding free energy": 0.19}, {"sequence": "CTAAGCACGTGGGGGG", "relative binding free energy": -0.31}, {"sequence": "GGTGGCACGTGTGTCT", "relative binding free energy": -0.04}, {"sequence": "GATGACACGTGGTGGT", "relative binding free energy": -0.06}, {"sequence": "TGGGTCACGTGTGGCA", "relative binding free energy": 0.19}, {"sequence": "ATGTGCACGTGGCGAG", "relative binding free energy": 0.01}, {"sequence": "GACGTCACGTGTTAAG", "relative binding free energy": 0.35}, {"sequence": "GGTCACACGTGTGGTC", "relative binding free energy": 0.18}, {"sequence": "GAAGTCACGTGTGGTC", "relative binding free energy": 0.17}, {"sequence": "GGAATCACGTGTGATA", "relative binding free energy": 0.16}, {"sequence": "GATTACACGTGCTGTT", "relative binding free energy": 0.12}, {"sequence": "GGCAACACGTGGTTTG", "relative binding free energy": 0.04}, {"sequence": "TAGTGCACGTGTAAGG", "relative binding free energy": 0.1}, {"sequence": "TGAGGCACGTGATTAT", "relative binding free energy": -0.16}, {"sequence": "GAGTGCACGTGTGGTA", "relative binding free energy": 0.19}, {"sequence": "TAGGACACGTGTCAGT", "relative binding free energy": 0.03}, {"sequence": "TTCTTCACGTGTTGTA", "relative binding free energy": 0.24}, {"sequence": "CTTTGCACGTGGCGTG", "relative binding free energy": -0.12}, {"sequence": "AATGTCACGTGGCTTG", "relative binding free energy": 0.06}, {"sequence": "GGCGACACGTGGGGCG", "relative binding free energy": -0.15}, {"sequence": "AGGTTCACGTGGTCCG", "relative binding free energy": 0.2}, {"sequence": "GTGTGCACGTGGGGGG", "relative binding free energy": -0.16}, {"sequence": "TTTGTCACGTGGGTGT", "relative binding free energy": 0.03}, {"sequence": "ACCTTCACGTGTAGGG", "relative binding free energy": 0.3}, {"sequence": "CTTTTCACGTGGTGGT", "relative binding free energy": 0.18}, {"sequence": "TTTGGCACGTGCGGGC", "relative binding free energy": -0.21}, {"sequence": "CGTTGCACGTGGAGCT", "relative binding free energy": 0.02}, {"sequence": "TTAGGCACGTGTATAT", "relative binding free energy": -0.07}, {"sequence": "ATAGACACGTGGTGGG", "relative binding free energy": -0.05}, {"sequence": "GGTTGCACGTGAGGAA", "relative binding free energy": 0.31}, {"sequence": "TTCTTCACGTGGTATA", "relative binding free energy": 0.26}, {"sequence": "ATTATCACGTGTCGCG", "relative binding free energy": 0.29}, {"sequence": "TTTTGCACGTGCGATA", "relative binding free energy": 0}, {"sequence": "TTGGTCACGTGACATT", "relative binding free energy": 0.18}, {"sequence": "GGTGTCACGTGGTTTT", "relative binding free energy": 0.13}, {"sequence": "TCGGACACGTGGGTGG", "relative binding free energy": -0.08}, {"sequence": "TATGGCACGTGCGGCG", "relative binding free energy": -0.13}, {"sequence": "AGAGGCACGTGAATTT", "relative binding free energy": 0.17}, {"sequence": "CGGTGCACGTGTGATA", "relative binding free energy": 0.12}, {"sequence": "TTTCGCACGTGACATG", "relative binding free energy": 0.2}, {"sequence": "GTCGGCACGTGGCAGT", "relative binding free energy": -0.13}, {"sequence": "AGGACCACGTGGGGGG", "relative binding free energy": -0.23}, {"sequence": "ATTAACACGTGGATTT", "relative binding free energy": -0.2}, {"sequence": "TGGTGCACGTGGGCGA", "relative binding free energy": 0}, {"sequence": "GTAGGCACGTGAGGTG", "relative binding free energy": 0.19}, {"sequence": "GAGGTCACGTGTTTTT", "relative binding free energy": 0.16}, {"sequence": "TCGTTCACGTGGATAG", "relative binding free energy": 0.28}, {"sequence": "TATGTCACGTGACTAG", "relative binding free energy": 0.09}, {"sequence": "ACAGTCACGTGTTTAT", "relative binding free energy": 0.16}, {"sequence": "CTGGACACGTGTGATT", "relative binding free energy": 0.2}, {"sequence": "TGCTGCACGTGTGATA", "relative binding free energy": -0.03}, {"sequence": "GCGATCACGTGTGAGT", "relative binding free energy": 0.39}, {"sequence": "TTAAACACGTGTATTG", "relative binding free energy": 0}, {"sequence": "CCTTGCACGTGAGGTT", "relative binding free energy": 0.19}, {"sequence": "TTGGCCACGTGAGTGG", "relative binding free energy": 0.19}, {"sequence": "TTCTGCACGTGTGATA", "relative binding free energy": -0.03}, {"sequence": "AATCGCACGTGTTGGA", "relative binding free energy": 0.04}, {"sequence": "TTTGTCACGTGATGAA", "relative binding free energy": 0.14}, {"sequence": "GGAGCCACGTGGGTGT", "relative binding free energy": -0.14}, {"sequence": "TTAGTCACGTGAAGCG", "relative binding free energy": 0.24}, {"sequence": "TTAAGCACGTGAGATA", "relative binding free energy": 0.43}, {"sequence": "GTTGCCACGTGTTAAG", "relative binding free energy": 0.11}, {"sequence": "GGTTACACGTGTCGAA", "relative binding free energy": 0.28}, {"sequence": "TTTGCCACGTGTTGAG", "relative binding free energy": -0.13}, {"sequence": "GAAGTCACGTGAAGTT", "relative binding free energy": 0.44}, {"sequence": "TGATGCACGTGGAGTG", "relative binding free energy": -0.03}]}]}
